The campaign covered roughly 52,000 compounds. About 4,300 (8.3%) were called active. No stated cut-off is given here; in the data, active means survival mostly below about 52% (no sharp cut-off); inactive means mostly above about 56%. This is one part of the list.
These molecules were tested on DeltatarO mutant (assay: growth inhibition of S. aureus wild type versus tarO mutant, primary screen, teichoic acid synthesis inhibitors, RN4220, OD600 (AID 463173)). Settings: OD600, 18 h, hits give low values, screened at 18.75 µg/mL (by protocol).

Compound | survival
CCc1ccccc1NC(=O)Cn1c(=O)n(Cc2ccco2)c(=O)c2ccccc21 | inactive: 89%
Cc1ccc(N2C(=O)CC(c3ccccc3F)C3=C2COC3=O)cc1Cl (stereo not given) | inactive: 119%
CCc1ccc(NC(=O)C2CCN(c3nn4cc(-c5ccc(OC)cc5)nc4s3)CC2)cc1 | inactive: 74%
COc1ccc(CNC(=O)c2cnc3sc(N4CCC(C)CC4)nn3c2=O)c(OC)c1 | inactive: 71%
Cc1c(C)n(Cc2ccccc2)c2ccc(C(=O)NCc3ccccc3F)cc12 | inactive: 88%
COc1ccccc1NC(=O)NCCCN1CCN(c2ccc(F)cc2)CC1 | inactive: 82%
O=C(c1cnn(-c2cccc(F)c2)c1-n1cccc1)N1CCN(c2ccccc2F)CC1 | inactive: 75%
COC(=O)C1=C(C)NC(C)=C(C(=O)OC)C1c1cn(-c2ccccc2)nc1-c1ccco1 | inactive: 69%
COc1ccc(-n2nc3c(N4CCC(C(=O)NCc5cccc(F)c5)CC4)nnc(C)c3c2C)cc1 | inactive: 71%
CC(=O)c1cccc(NC(=O)CN2C(=O)c3ccccc3Sc3ncccc32)c1 | inactive: 95%
N#CC1=C(N)OC2=C(CCc3ccccc32)C1c1ccccc1 (stereo not given) | active: 2%
COc1ccc(NC(=O)c2ccc3c(c2)N(Cc2cccc(Cl)c2)C(=O)c2ccccc2S3=O)cc1Cl (stereo not given) | inactive: 112%
COc1ccc(C2C=C(c3ccc(F)cc3)Nc3nc(-c4ccc(Cl)cc4)nn32)cc1 (stereo not given) | inactive: 104%
Cc1ccc2c(CNCC(C)c3ccccc3)c(C(=O)O)n(Cc3ccccc3C)c2c1 (stereo not given) | inactive: 70%
CC1=C(C(=O)NCc2ccccc2Cl)C2(CCCCCC2)OC1=O | inactive: 49%
CCOC(=O)C1CCN(C(=O)Cn2nc(C)n3c(cc4sccc43)c2=O)CC1 | inactive: 94%
Cc1ccccc1Cn1c(CN2CCC(C(=O)NCc3cccnc3)CC2)cc2ccccc21 | inactive: 80%
Cn1c(SCC(=O)N2CCOCC2)ncc(C(=O)Nc2ccccc2)c1=O | inactive: 76%
COc1ccc(C(=O)Nc2cccc(-c3cn4ccsc4n3)c2)cc1OC | inactive: 92%
CCCN1CCN(CCCNC(=O)c2ccc3c(c2)sc2nc(-c4ccc(OC)cc4)cn23)CC1 | inactive: 73%
Cc1ccccc1OCc1nnc(SCC(=O)Nc2sc(C)c(C)c2C#N)n1-c1ccccc1 | inactive: 69%
COc1cccc(C2CC(=O)Nc3c2c(=O)n(C)c2nc4ccccc4n32)c1OC (stereo not given) | inactive: 68%
O=C(CCn1c(=O)c2sccc2n(Cc2ccc(F)cc2)c1=O)NCc1ccc2c(c1)OCO2 | inactive: 89%

Compound | survival
Cc1ccc(-n2nc3cc(C)c(NC(=O)c4ccc(-c5ccccc5)o4)cc3n2)cc1 | active: 46%
Cc1ccc(NC(=O)CC2Oc3ccc(C)cc3NC2=O)c(C)c1 (stereo not given) | inactive: 75%
COc1cccc(Nc2nnc(-c3cc4ccc(O)cc4oc3=O)s2)c1 | inactive: 85%
CCOc1ccc(NC(=O)Cn2c(=O)n(CCc3ccccc3)c(=O)c3c4c(sc32)CCCC4)cc1 | inactive: 93%
Cc1ccc(Cl)cc1NC(=O)Cn1c(=O)cc(C)c2c(C)nn(C)c21 | inactive: 113%
Cc1ccc(CNC(=O)CCNS(=O)(=O)c2ccc3c(c2)oc(=O)n3C)cc1 | inactive: 124%
Cc1cc(C)c(S(=O)(=O)Nc2ccc3oc(C)c(C(=O)OC(C)C)c3c2)cc1C | active: 48%
Cc1oc(-c2cccc(Cl)c2)nc1CN1CCC(C(=O)NC(C)C)CC1 | inactive: 103%
CCCCNC(=O)CCC1N=C2c3ccccc3N=C(SCC(=O)NCCc3ccc(OC)c(OC)c3)N2C1=O (stereo not given) | inactive: 64%
Nc1nc(CC(=O)NN=C2CCCCCC2)cs1 | inactive: 65%
CCN(CC)CCNC(=O)CCn1c(=O)c2cccn2c2cccnc21 | inactive: 87%
Cc1ccc2nc(-c3ccc(NC(=O)Cc4ccccc4)cc3)sc2c1 | inactive: 64%
CC(=O)c1ccc(NC(=O)Cn2nc(C(F)(F)F)c3c2CCC3)cc1 | inactive: 79%
O=C(Cn1ncc2c3ccccc3n(Cc3ccccc3)c2c1=O)NCc1cccs1 | inactive: 91%
CCc1nc2ccc(C(=O)N3CCN(c4ccccc4F)CC3)cc2nc1CC | inactive: 77%
COc1cccc2sc(NC(=O)c3ccc4c(c3)OCCO4)nc12 | inactive: 88%
CCCCCCOc1ccc(/C=C/C(=O)Nc2sc3c(c2C(=O)OC)CCC3)cc1OC | inactive: 69%
CCc1ccccc1NC(=O)CCNS(=O)(=O)c1ccc2c(c1)CCCC(=O)N2 | inactive: 102%
Cc1nccn1C(=O)c1ccccc1C(=O)O | inactive: 65%
COc1ccc(NC(=O)Cn2c(=O)oc3ccccc32)cc1 | inactive: 100%
O=C(CSc1nc2ccsc2c(=O)n1Cc1ccc(F)cc1)NCc1ccc(Cl)cc1 | inactive: 76%
COc1ccc(OC)c(-c2cc(C(=O)Nc3ccc(C)c(C)c3)no2)c1 | active: -1%
